# Laboratory results taken from publication PMC6919601, “Identification of Plasmodium dipeptidyl aminopeptidase allosteric inhibitors by high throughput screening” (PLoS ONE, 2019).
# Out of some 110,000 compounds screened, about 230 (0.21%) showed an effect of 50% or more. Some of the results follow.
# Target: DPAP1 (Plasmodium falciparum, UniProt Q8IIJ9)
# Assay: primary screen, percent inhibition; read by cleavage of a fluorogenic dipeptide substrate; higher = more effect of the substance
# Set-up: species or system P. falciparum D10 trophozoite lysates; single well
# 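Also: 30 min substrate incubation versus DMSO and 10 µM JCP410 controls.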
# Chain of DPAP1 (Q8IIJ9 whole entry, looked up): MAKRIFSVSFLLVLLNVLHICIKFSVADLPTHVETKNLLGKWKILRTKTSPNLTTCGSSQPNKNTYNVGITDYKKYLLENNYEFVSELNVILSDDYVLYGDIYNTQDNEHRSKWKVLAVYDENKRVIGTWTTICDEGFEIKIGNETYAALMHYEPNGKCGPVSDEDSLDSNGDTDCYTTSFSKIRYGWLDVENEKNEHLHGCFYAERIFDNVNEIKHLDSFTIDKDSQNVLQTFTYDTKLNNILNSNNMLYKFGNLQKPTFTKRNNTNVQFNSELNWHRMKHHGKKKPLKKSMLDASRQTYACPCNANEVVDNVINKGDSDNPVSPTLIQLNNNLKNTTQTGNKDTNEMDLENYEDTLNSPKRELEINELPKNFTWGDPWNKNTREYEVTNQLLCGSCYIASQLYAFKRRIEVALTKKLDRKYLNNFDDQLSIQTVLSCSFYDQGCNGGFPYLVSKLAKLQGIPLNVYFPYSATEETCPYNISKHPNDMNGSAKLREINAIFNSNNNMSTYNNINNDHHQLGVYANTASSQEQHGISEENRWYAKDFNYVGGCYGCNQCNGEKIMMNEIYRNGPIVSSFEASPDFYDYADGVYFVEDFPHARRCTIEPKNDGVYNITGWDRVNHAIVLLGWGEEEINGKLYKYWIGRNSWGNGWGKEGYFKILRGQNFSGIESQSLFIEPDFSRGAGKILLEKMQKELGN
row,Structure (SMILES),% Inhibition @ 10 uM [%]
1,CC(C)CC(=O)Nc1nn2c(COc3ccccc3)nnc2s1,16.2
2,Cc1ccc(-n2cc(C(C)(C)O)nn2)cc1,-4.04
3,CN1CCC(c2ccc3c(c2)CSc2sccc2C3=O)CC1,-0.519
4,COC(=O)C1=C(C)NC(=O)CC1c1ccccc1OCc1ccccc1 (stereo not shown),-4.77
5,CCOC(=O)C1=C(CN2CCN(C)CC2)NC(=O)NC1c1cccc(OC)c1OC (stereo not shown),3.75
6,CC(=O)c1cccc(NS(=O)(=O)c2c(Cl)cccc2Cl)c1,0.161
7,O=[N+]([O-])c1ccc(-c2nnc(-c3ccc([N+](=O)[O-])cc3)o2)cc1,-4.01
8,COc1ccc(CNC(=O)C(C)n2nc(C)c3c(C)n(-c4ccc(C)cc4)nc3c2=O)cc1OC (stereo not shown),-0.307
9,COc1ccc2[nH]c3c(=O)n(CCCCCC(=O)N4CCC(C(N)=O)CC4)c(=S)[nH]c3c2c1,12.8
10,Cc1ccccc1C1CC(=O)NC2=C1C(=O)CC(c1ccc(F)cc1)C2 (stereo not shown),-2.24
11,CCc1ccc(C(=O)N[C@@H](CC(C)C)C(=O)NCC#N)cc1,1.71
12,Cc1nc(C(=O)Nc2ccccc2F)c(C(=O)NC(C)C)nc1C,0.35
13,CC(C)C(NS(=O)(=O)c1cccc2nsnc12)C(=O)N1CCCCC1 (stereo not shown),-0.465
14,CC(=O)CC(c1ccc(O)cc1)c1c(O)oc2ccccc2c1=O (stereo not shown),3.7
15,CCc1ccccc1NC(=O)COc1ccc([N+](=O)[O-])cc1,-1.32
16,COc1ccc(CCn2c(C)cc3c(c2=O)C(c2ccc4c(c2)OCO4)C(C#N)=C(N)O3)cc1OC (stereo not shown),-2.91
17,S=c1n(CN2CCCCC2)c2ccccc2n1CN1CCCCC1,0.968
18,CCOC(=O)c1c(NC(=O)COc2ccccc2Cl)sc(C(C)=O)c1C,-6.72
19,C=CCN(CC=C)C(=O)c1nc2ccccc2s1,-0.469
20,Cc1oc(-c2ccc(C(=O)NCc3ccccn3)cc2)nc1COc1ccccc1,-3.84
21,C=CCN1C(=O)c2[nH]nc(-c3c(C)cc(C)cc3O)c2C1c1ccc(OCC)cc1 (stereo not shown),-5.33
22,O=C(c1ccc2nc(N3CCCCC3)sc2c1)N1CCC(Cc2ccccc2)CC1,4.22
23,COc1ccc(-c2nocc2C#N)cc1,-2.35
24,NC(=O)C1CCCN(Cc2cccc(Cl)c2)C1 (stereo not shown),1.88
25,Cc1cc(C)c(S(=O)(=O)N(CC(=O)N2CCC(C)CC2)Cc2ccccc2)c(C)c1,6.79

row,Structure (SMILES),% Inhibition @ 10 uM [%]
1,Cc1c(CC(=O)NCc2ccccc2)c(=O)oc2cc(O)c(Cl)cc12,2.54
2,Cc1ccc(CNC(=O)c2nnc(CS(=O)(=O)c3ccccc3)o2)cc1,-2.78
3,CCOC(=O)C1=C(C)N=c2s/c(=C\c3ccncc3)c(=O)n2C1c1ccc(OCC)c(OCC)c1 (stereo not shown),-5.26
4,CC(=O)N(C)c1ccc(NC(=O)c2ccc(Br)cc2)cc1,-2.85
5,Cc1sc(C2C(C#N)=C(N)OC3=C2C(=O)CCC3)cc1CSc1nc2ccccc2s1 (stereo not shown),2.62
6,O=C1CC(c2ccccc2)CC(=O)C1=CNCCN1CCN(C2OC(=O)c3ccccc32)CC1 (stereo not shown),-1.92
7,Cc1ccc(S(=O)(=O)NCC2CCC(C(=O)NCC(C)c3ccccc3)CC2)cc1 (stereo not shown),-2.72
8,CC(C)CCNC(=O)c1cc2sc(Cl)cc2n1C,-6.68
9,CCCn1c2ccccc2c2cnn(CC(=O)NC3CCCCC3)c(=O)c21,-1.96
10,C=CCOc1ccc(C2c3c(oc4ccccc4c3=O)C(=O)N2Cc2ccc3c(c2)OCO3)cc1 (stereo not shown),-6.94
11,NC(=O)c1ccc(SCC(=O)O)c([N+](=O)[O-])c1,-2.66
12,Cc1[nH]c2ccccc2c1CCNC(=O)COc1ccc(F)cc1F,2.49
13,O=C(c1ccc2c(c1)c1ccccc1n2Cc1ccccc1)C(F)(F)F,0.526
14,CCOc1ccccc1NC(=O)CN(c1ccc(C)cc1C)S(C)(=O)=O,6.69
15,Cc1c(C)n(C)c2ccc(C(=O)NCCN3CCCC3)cc12,-2.1
16,O=C(NCc1ccccc1F)C1CCCN(c2cnccn2)C1 (stereo not shown),-2.84
17,CCc1ccccc1NC(=O)c1ccoc1C,1.86
18,O=C(Nc1nccs1)C1CCCN(S(=O)(=O)c2cccc3cccnc23)C1 (stereo not shown),-10.4
19,N#CC1C(=O)NC(=S)N(c2ccccc2)C1c1ccccc1 (stereo not shown),-3.27
20,CC(CCC(=O)O)C1CCC2C3CC=C4CC(O)CCC4(C)C3CCC12C (stereo not shown),-4.93
21,O=C(CCc1nc2cccnc2n1Cc1cccs1)NCCc1cccs1,-3.45
22,COc1ccc2sc(NC(=O)Cc3cn(C)c4ccccc34)nc2c1,1.08
23,CN(C)/C=C1/C(=O)N(c2nc3ccccc3s2)N=C1c1ccccc1,1.26
24,O=C(NCC(O)c1ccccc1)c1cccc(Cl)c1 (stereo not shown),-2.51
